Test results: the supplement of paper PMC4967469

compound: Cn1cc(C2=C(c3cn(C4CCN(Cc5ccccn5)CC4)c4ccccc34)C(=O)NC2=O)c2ccccc21 [LY317615]; experiment: Viability of human cancer cell lines after 72 h of drug (GDSC screen); conditions: top dose inferred
Experimental: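 Human cancer cell lines in 384-well plates, medium with 10% serum, drug for 72 h over a 256-fold dose range (nine 2-fold or five 4-fold steps up to the top dose). Adherent lines were fixed and stained with the nucleic acid dye Syto60, suspension lines read with resazurin; signal relative to control wells, capped at 0 and 100%. One two-parameter sigmoid per drug and line, fitted in a mixed model over all curves with the slope shared within a line.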

| Cell Line | AUC | IC50 |
| --- | --- | --- |
| HCC1500 (breast, adherent, top dose 10.24 µM) | 0.923 | > 10.2 µM |
| SIMA (neuroblastoma, adherent, top dose 20 µM) | 0.849 | 18.2 µM |
| COR-L321 (lung, suspension, top dose 20 µM) | 0.85 | 15.1 µM |
| ALL-PO (lymphoblastic leukaemia, suspension, top dose 20 µM) | 0.417 | 0.729 µM |
| RCC-JF (kidney, adherent, top dose 20 µM) | 0.798 | 10.9 µM |
| WM35 (melanoma, adherent, top dose 20 µM) | 0.949 | > 20 µM |
| KELLY (neuroblastoma, adherent, top dose 20 µM) | 0.989 | > 20 µM |
| CAL-62 (thyroid, adherent, top dose 20 µM) | 0.982 | > 20 µM |
| JHOS-2 (ovary, adherent, top dose 20 µM) | 0.688 | 4.62 µM |
| NCI-H1975 (lung adenocarcinoma, adherent, top dose 20 µM) | 0.719 | 5.78 µM |
| TGBC1TKB (biliary tract, adherent, top dose 20 µM) | 0.924 | > 20 µM |
| HCC2218 (breast, suspension, top dose 20 µM) | 0.579 | 2.17 µM |
| SK-N-AS (neuroblastoma, adherent, top dose 20 µM) | 0.714 | 5.57 µM |
| NCI-H292 (lung adenocarcinoma, adherent, top dose 20 µM) | 0.938 | > 20 µM |
| huH-1 (liver, adherent, top dose 20 µM) | 0.953 | > 20 µM |
| MDA-MB-157 (breast, adherent, top dose 20 µM) | 0.963 | > 20 µM |
| UM-UC-3 (bladder, adherent, top dose 20 µM) | 0.956 | > 20 µM |
| CCRF-CEM (lymphoblastic leukaemia, suspension, top dose 20 µM) | 0.883 | 15.6 µM |
| Hs633T (fibrosarcoma, adherent, top dose 20 µM) | 0.969 | > 20 µM |
| G-401 (kidney, adherent, top dose 20 µM) | 0.894 | > 20 µM |
| YMB-1-E (breast, adherent, top dose 20 µM) | 0.916 | > 20 µM |

| Cell Line | AUC | IC50 |
| --- | --- | --- |
| NCI-SNU-16 (stomach, suspension, top dose 20 µM) | 0.908 | > 20 µM |
| BPH-1 (prostate, adherent, top dose 20 µM) | 0.333 | 0.405 µM |
| SCC-25 (head and neck, adherent, top dose 20 µM) | 0.843 | 16.9 µM |
| RKO (large intestine, adherent, top dose 20 µM) | 0.785 | 7.88 µM |
| A498 (kidney, adherent, top dose 20 µM) | 0.857 | > 20 µM |
| C-4-I (cervix, adherent, top dose 20 µM) | 0.986 | > 20 µM |
| TOV-112D (ovary, adherent, top dose 20 µM) | 0.618 | 2.65 µM |
| L-363 (myeloma, suspension, top dose 20 µM) | 0.89 | 17.5 µM |
| SJSA-1 (bone, adherent, top dose 20 µM) | 0.939 | > 20 µM |
| RS4-11 (leukaemia, suspension, top dose 20 µM) | 0.645 | 3.02 µM |
| BICR31 (head and neck, adherent, top dose 20 µM) | 0.984 | > 20 µM |
| NCI-H358 (lung adenocarcinoma, adherent, top dose 20 µM) | 0.37 | 0.525 µM |
| BC-3 (B-cell lymphoma, suspension, top dose 20 µM) | 0.922 | > 20 µM |
| MMAC-SF (melanoma, adherent, top dose 20 µM) | 0.936 | > 20 µM |
| SCH (stomach, adherent, top dose 20 µM) | 0.988 | > 20 µM |
| H2804 (mesothelioma, adherent, top dose 20 µM) | 0.43 | 0.789 µM |
| NCI-H23 (lung adenocarcinoma, adherent, top dose 20 µM) | 0.685 | 4.09 µM |
| CAL-39 (cervix, adherent, top dose 20 µM) | 0.862 | 18.2 µM |
| HTC-C3 (thyroid, adherent, top dose 20 µM) | 0.855 | 19.1 µM |
| NCI-H1734 (lung adenocarcinoma, adherent, top dose 20 µM) | 0.863 | > 20 µM |

By IC50 is meant the dose at which the fit gives 50% viability; a limit (>, <) means that the fit lies beyond the doses tested. AUC sums up the same curve from the lowest dose to the 256-fold higher top dose: 1 means no effect, lower means more sensitive. An inferred top dose comes from the curve model; the source does not state it.
